Measured values taken from the supplement of paper PMC11417369.
± gives the standard deviation of the averaged measurements. The list shows a part of the results.

System: PfAP2-LT AP2 domain (GST-tagged)
Test: gcPBM binding intensity (ln(normalized median fluorescence intensity)); higher = stronger DNA binding
Outline: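 Binding intensity is defined as the maximum Masliner-normalised natural-log median intensity across replicate spots for either probe orientation. It was measured on an Agilent 4 × 180k array of primer-extended double-stranded 36-bp intergenic genomic probes and negative controls, to which GST-tagged P. falciparum DNA-binding domains made in E. coli were applied for 1 h in 1× PBS with 1% milk, 0.2 mg/ml BSA, 0.5% salmon testes DNA and 0.03% Triton X-100. Detection was by Alexa488 anti-GST antibody and scanning at 488 nm.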

| Sequence | gcPBM binding intensity (ln) |
| --- | --- |
| ATATATAAAATATATTGTACATTAACATATATATTT [XGTACX_site2055] | 8.57 ± 0.39 |
| AAACTTGACGGACACACACACACATATATAAAAAAA [CACACA_site4577] | 9.94 ± 0.38 |
| ATATATAAATAAATAGTGCATTTTAATATTTAACGT | 8.85 ± 0.41 |
| TGTTATATTTGTGCGTGTACACATTTGAAAAAATAT [XGTACX_site3796] | 8.74 ± 0.4 |
| TTTCTTTATTTTTTTTTTTTTTTTTTTCCTTTTTTT [TGCATGCA_negctrl_site231] | 8.4 ± 0.56 |
| TGTGCACGCATATACACACACAAATACAATGATAAA [CACACA_site6656] | 9.44 ± 0.36 |
| AACGGGGCCAAGAAATATAAATAATCAAAACAAAAA [XGTACX_negctrl_site320] | 8.71 ± 0.76 |
| AATATCATCAAACGCACACATACATAAATATATTAT [CACACA_site2174] | 9.44 ± 0.44 |
| GTTCTTTCAAGTTATACACACCAAAAAAAAAAAAAA [CACACA_site7435] | 8.64 ± 0.35 |
| TAGTACACACAAAATACATGCGGGGTTTAATATTTA [TGCATGCA_site576] | 9.12 ± 0.47 |
| AATTCTTTCATATATTGTACGTATTCCCATAAAATA [XGTACX_site5923] | 8.71 ± 0.42 |
| AGTGTGTGTGCGTATAGTACATATACATATATACAC [XGTACX_site6882] | 9.97 ± 0.47 |
| AAATGAATAAAATTTATTTATAAAAGAAAAATCACA [GTGCAC_negctrl_site225] | 8.35 ± 0.6 |
| ATAATACAAAATACATGTACAAATATTTTTCATATT [XGTACX_site1721] | 8.86 ± 0.46 |
| TATAAATAATTATATTGTACTCTTTATATTTTTCTT [XGTACX_site5335] | 8.61 ± 0.7 |
| AGAAGTTTATCTTTTAGTACGCATAAAAAAAAAAAA [XGTACX_site2359] | 8.43 ± 0.46 |
| GGGAGGATATTTCACAGTACCCAGGAAATCTGCGGA [XGTACX_site2555] | 8.56 ± 0.47 |
| TAAATATATATATGGTGTACCATTTTGGGTTAATAT [XGTACX_site2706] | 8.69 ± 0.44 |
| TTAATATTTTGATGTGTACACATTAAAATAGTTTTA [CACACA_site5712] | 8.46 ± 0.48 |

| Sequence | gcPBM binding intensity (ln) |
| --- | --- |
| TATATTATTTTTTATTGTACTTAAAAATATTATTTG [XGTACX_site1443] | 8.61 ± 0.34 |
| TATAGTAATATTTGAAGTACAAAATTAAAATAAATA [XGTACX_site7634] | 8.88 ± 0.49 |
| TTAAATAGCTGTAATTGTACAAATAAATACATAAAT [XGTACX_site3097] | 8.82 ± 0.38 |
| TTATATAAGGTCTATATATAAATATTAATGATAAGG [TGCATGCA_negctrl_site354] | 8.52 ± 0.46 |
| TTTTTTTTGTTATGAACATGCAAATTAAAATATAAT [TGCATGCA_site954] | 8.21 ± 0.4 |
| CAACAATTTCGTCATACACACATTCAGAATATATAT [CACACA_site2370] | 8.98 ± 0.34 |
| TACTTTTCTTAAAGATGTACGTTTTAAAAATAAAAT [XGTACX_site14] | 8.21 ± 0.4 |
| TAAATACATAAAAATTGTACACATTGTTTTCTCTTT [XGTACX_site6435] | 8.72 ± 0.55 |
| TCCTTATTTTGCAGGAGTACCATTTTTTAAAAATAC [XGTACX_site5968] | 8.49 ± 0.4 |
| AATAACAATTATAAAAGTACAGATTTTTATTTCTAA [XGTACX_site5746] | 8.47 ± 0.43 |
| ACAATTACTTATTTTAATTTTTTTAATCTATTGATT [CACACA_negctrl_site967] | 8.61 ± 0.45 |
| ATATTTTTTTTTCTTTCGCACACGTGAAAGAATTTC [CACACA_site8636] | 8.99 ± 0.57 |
| TTTTATGCTCAATTATTAAGAAATACTTTTTCTTCC [XGTACX_negctrl_site208] | 8.45 ± 0.68 |
| AAAATAAAAATTAACTGTACATACATTATTCAAATT [XGTACX_site6106] | 8.59 ± 0.45 |
| TACAAACAAACACATAGCAATATATGTTATCAAAAA [XGTACX_negctrl_site1] | 8.95 ± 0.47 |
| AAGGAAATAATTAAATGTACAAAAAAAAAAAAAATT [XGTACX_site562] | 8.79 ± 0.59 |
| AAGATTAAACATTGCACACAGAAATATATTTTCTAT [CACACA_site2374] | 9.02 ± 0.33 |
| ATTAATAAAAGATAAAGTACAAATCGGAAAATGAAT [XGTACX_site7846] | 9.03 ± 0.44 |
| TTTCAATGTGACACGTGTCCGTAAAATTACATAATT [XGTACX_site7073] | 8.8 ± 0.28 |

| Sequence | gcPBM binding intensity (ln) |
| --- | --- |
| TTGTTCATCTTTTTTTTTTTTTTTTTTTTTTAAATC [CACACA_negctrl_site191] | 8.22 ± 0.47 |
| ATTTATAATTTTTGAGCACACACAAGCATATATATA [CACACA_site8531] | 9.1 ± 0.36 |
| TGTTATTATTAAGACACACACACAAAAAAAAAAAAA [CACACA_site1481] | 9.4 ± 0.42 |
| TGAACTCATAGGAAAACACACATATGTGCAATATAT [CACACA_site6231] | 9.12 ± 0.36 |
| ACAATGATAGTGTAAAGTACATATATATAAAAAAAT [XGTACX_site5928] | 9.26 ± 0.59 |
| TTTATAATATGTTATACATGCAGGTACCTTTTTGTA [TGCATGCA_site746] | 8.9 ± 0.46 |
| GAGAAATTTATACATACACACATATAAATATTATAG [CACACA_site7819] | 8.98 ± 0.42 |
| CTTTGCATTACGAACATACACACAGAATAACTGAAA [CACACA_site3024] | 8.94 ± 0.34 |
| ATATATTTTGGGGACTTTTTAAAAAAGAAGTATTAA [TGCATGCA_negctrl_site337] | 8.32 ± 0.49 |
| TTTTTGTTAATAAGTATGCACTATCTCATTTTTGTA | 8.79 ± 0.49 |
| TAGAAAAAAATAGATGCATGCAATGAATGAATAATA [TGCATGCA_site14] | 9.36 ± 0.55 |
| TTTCTATTACGAACGTGTACATACATTATTCTTAAA [XGTACX_site5816] | 8.68 ± 0.47 |
| GAGCATTACACATATACACACATATAAATAAACATA [CACACA_site7315] | 9.32 ± 0.42 |
| CTATACTATGAAAAGTGTACGAATAGCTAGCTATTT [XGTACX_site5927] | 8.88 ± 0.4 |
| TAGTAGTATTCATCCAGTACATATAAATGTATAATA [XGTACX_site7552] | 8.86 ± 0.59 |
| ATCTATATTATTTCTACACACATATCTATAATATGT [CACACA_site7561] | 9.46 ± 0.45 |
| ATATCAAATAGACAAACACACAAAGGAAGAGTGAAA [CACACA_site3921] | 9.21 ± 0.49 |
| TTCTTTTTTTTTTTTTTTTTTTTATAGTACAAAAAA [TGCATGCA_negctrl_site450] | 8.2 ± 0.56 |
